In the RNAGym collection of RNA variant scans (doi:10.7554/elife.90254):
The source gives no read counts; variants with many changes may rest on few reads.

B1: OR4K15 (parent)
chain: GUUAACGGUCAUAGGCCAUGGAAACUAGGAGCACCAUUUCGCUGCCAGUGAAGAAAUGAACAAAGAAAAUCUGGGCCAGGCAGGCAUCAAAAGAAAUAGUCUUGCGCUCAACCAGAAAGUCUGUAAUCAUUUUAAGGGUA

Variants of: B1
Test: self-cleavage, relative activity (ratio to wild type); higher = more cleavage; in vitro, sequencing; the parent is a self-cleaving ribozyme

Variant | self-cleavage
A47G A59G A126G | 0.66
A47G A60C A96U | 1.48
A47G A60G A62C A63G A67G U87A U122C | 0.6
A47G A60G A67U A82G A129G | 0.15
A47G A60U A82G U100A | 0.14
A47G A60U C105U | 0.22
A47G A62G A92G U97A | 1.09
A47G A62G U127A | 1.68
A47G A62U A89U | 1.14
A47G A62U A94G A95G U108C | 0.05
A47G A63G A86U U87C C107U A111G | 0
A47G A64U A96U A116U | 0.02
A47G A66G U87C A92G | 1.28
A47G A66G U120C C128U | 1.05
A47G A66G U131C | 1
A47G A67G A68G U122C | 0.14
A47G A69G U100C U122C | 2.06
A47G A78G A95G A96G | 0.24
A47G A78G U87C | 0.33
A47G A82G A86G A140G | 0.12
A47G A89G A92G U130C | 0.73
A47G A91G U102C | 1.18
A47G A91G U122C | 0.72
A47G A95G A110G | 0.13

Variant | self-cleavage
A47G A95G U103C C105U U108G | 0
A47G A96G A116G | 0.59
A47G A96U U133A | 1.53
A47G A98U A126G | 0.43
A47G A110U A140G | 0.76
A47G A114G A129G | 0.06
A47G A114U U120C U130C | 0
A47G A117G U120A U127C | 0
A47G A117G U133A | 1.01
A47G A118U U122C A129G | 0.17
A47G C77U A96G U130C U139C | 2.17
A47G G50A G99A | 0.68
A47G G74A A95G A110G A118G A134G | 0.02
A47G G119A U122A A140G | 1.59
A47G U49A A56G C105U | 0.02
A47G U49C A54G A126G U132C | 1.15
A47G U49C A66G A86U A111C | 0.02
A47G U49C A67G A92G | 0.59
A47G U49C G50A A78G U131C | 0.05
A47G U49C G74U U102C | 0.18
A47G U57A G74A A118G | 0.05
A47G U57C A62G | 0.92
A47G U57C A64G A86U | 1.42
A47G U57C A78G A94U U120C | 0.09

Variant | self-cleavage
A47G U70A G106A A111G | 0.02
A47G U70C A86G | 0.53
A47G U70C A110U U131C | 0.07
A47G U72A A134G | 0.26
A47G U72C A110U | 0.17
A47G U87A A135G | 1.12
A47G U97G U122C | 1.62
A47G U127C U133C | 0.77
A47U A51G A62G A63G | 0.23
A47U A51G A125G | 0.16
A47U A52G A116G U132A | 0.11
A47U A52G A118G | 0.29
A47U A52G A118G U127C A140G | 0.17
A47U A52U A60G | 1.42
A47U A54G A92U | 0.95
A47U A54U A59G U70A A114G U132C | 0.09
A47U A55C A82U A86G A91G U120C U132C | 0.02
A47U A55G A56G U70C A78U | 0.11
A47U A55U A92G | 0.05
A47U A56G G137U | 1.69
A47U A59G A89G | 0.66
A47U A60G U103C A110G | 0.02
A47U A60G U108C U122C A125G A129G | 0
A47U A63G A98G | 0.27

Variant | self-cleavage
A47U A63G U130C | 0.3
A47U A64G U72C | 0.16
A47U A66G A95U | 2.32
A47U A66G U102C | 1.89
A47U A68G A95G A134G | 1.38
A47U A68U A90G A111G | 0.04
A47U A69G U70A G104A | 0.02
A47U A69U A78U U100C | 1.74
A47U A69U A90G | 0.96
A47U A82G U103C | 1.99
A47U A82G U122A | 0.35
A47U A82U A96G U122A | 0.12
A47U A86U U87C A111G U122C | 0.01
A47U A89U A94G | 1.47
A47U A89U A110G | 0.06
A47U A90G A117G | 1.15
A47U A91G A98G | 0.1
A47U A92G U102G A110G A114U A118G | 0.03
A47U A94G U102C A114U A135G | 0.02
A47U A96G U97C U122A | 0.06
A47U A96G U108C A117G A126G | 0
A47U A96U U102C | 1.35
A47U A111G A114U A116U | 0
A47U A118G U122C A129G | 0.24

Variant | self-cleavage
A47U G50A A59G U108C | 0.01
A47U G80C A95G | 0.02
A47U U49A A63G A82G A89G A116G | 0.04
A47U U49C A111G A125C | 0
A47U U70G A110G A118U | 0.07
A47U U87C A110U | 0.51
A47U U108A U122A A129U U139C | 0.01
A47U U124C U132A | 0.46
A47U U132C U133C | 0.39
G48A A54G A68U | 1.42
G48A A56G A59G A60G A69U A82G U103C A118G | 1.71
G48A A69G A89G A98U A111G | 0.01
G48A A78U U133C | 0.62
G48A U72C U103C | 0.1
G48A U130C U131C | 1.2
G48C U103A G123A | 0.36
G48U A91G A96G | 0.47
G48U U72A U139C | 0.34
U49A A51G A52G G104A A126G A129C | 0.01
U49A A51U A52G U133A | 1.38
U49A A52G U87C A94G G104A A111G | 0.02
U49A A52U A59G A67G A96G | 1.14
U49A A54G A62U A134G | 1.41
U49A A54G G58A U70A | 1.11

Variant | self-cleavage
U49A A54U U102A | 0.55
U49A A60G U102C | 1.57
U49A A62G A91G A126G | 0.3
U49A A62G U132C | 1.13
U49A A62U U108C | 0.02
U49A A64U A66G A89G | 1.06
U49A A68C A114G | 0.6
U49A A68G A140G | 1.63
U49A A78G U130C | 0.21
U49A A78U C109U G136U | 0.1
U49A A82G U122A | 0.51
U49A A82U A94G A118G | 0.06
U49A A82U U108C U130C | 0.01
U49A A89G A125G | 0.11
U49A A90G A110G A126G U132C | 0.05
U49A A94G U122A | 1.87
U49A A96G A111G U130C U131C | 0
U49A U57C U108C | 0.02
U49A U72C C76A | 0.12
U49A U87C U131C | 0.86
U49A U102C U132A | 1.28
U49C A51G A54G | 1.23
U49C A51G A86G A96U U103C | 0.49
U49C A51U A62G A67G C76A G84U A86G U122G | 0.36

Variant | self-cleavage
U49C A51U A64U | 0.84
U49C A52G A117U | 0.57
U49C A52G U100C | 2.26
U49C A52U A92G U102C | 1.05
U49C A52U U131C | 1.21
U49C A54G U102C C105U A116G A135U | 0.37
U49C A55G A60G A62U | 1.37
U49C A55G A60G U124C | 0.81
U49C A55G A125G | 0.31
U49C A55G C76U A90G A111G | 0.01
U49C A55G U57C U102C U139G | 1.39
U49C A55U A59G A90G A126G | 0.49
U49C A55U C105U | 0.02
U49C A55U U87C A96G | 1.23
U49C A56G A60G U130C | 1.11
U49C A56G A62G A66U A110G A114G | 0.03
U49C A59G A111G | 0.03
U49C A59G A134G | 1.11
U49C A59G G65A U139A | 0.84
U49C A59G U124C | 0.65
U49C A59U A78U A89G | 0.09
U49C A62C C85A U100C | 0.56
U49C A62G A117U | 1.06
